The values that follow come from patent US6486166B1, “Suppression of cyclin kinase 2 activity for prevention and treatment of DNA viral infections” (Board of Regents, The University of Texas, priority 1997, dated 2002).

One data set deals with HCMV late antigen pp28. Description: expression of viral late antigen pp28 in infected LU cells (immunofluorescence). In kind it is cell-based, Human cytomegalovirus. As to conditions: in the presence of PAA; between 24 and 96 hr after infection of LU cells. The protocol: Cells were cultured on sterile glass coverslips. The cells were washed three times in PBS and fixed in acetone:methanol (1:1) at −20° C. for 10 min. The permeabilized cells were incubated with primary antibody diluted in PBS for 1 hr at 37° C. in a humidified chamber. […] The excess conjugate was removed by washing the cells in PBS for 30 min. After drying, the cells were mounted in PBS/glycerol (1:1) and examined with the aid of a Zeiss Photomicroscope III using a 40/1.0 Neofluar lens. Images were photographed on Kodak Ektachrome Elite 400 color slide film.

The next data set concerns human lung fibroblasts. As to conditions: 100 μg/ml (0.75 mM); cited from earlier work.

In the case of `O=C(O)CP(=O)(O)O` [PAA, phosphonoacetic acid], the pp28 expression result in the data set with HCMV late antigen pp28 is given as “could not be detected”. Further, the “effect on cellular DNA synthesis or population doubling times of uninfected cultures” value in the data set with human lung fibroblasts is listed as “little or no effect”.
